Measured values as given in ChEMBL document CHEMBL1201862, “PubChem BioAssay data set” (2004).
“And” between values parts separate entries of the source, which are not always exact repeats. Equal entries are not always repeated.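 Interpolation was linear, between the two tested concentrations surrounding the appropriate level; five concentrations were tested over 48 hours in 96-well plates. GI50 is the concentration that inhibits growth by half.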 The source made the active and inactive calls. Rule as the data show it: active = GI50 up to about 1.1 µM and inactive = higher.

What follows are compounds tested on NCI-H322M (assay: inhibition of tumour cell growth, NCI panel, 48 h).

Row | Structure (SMILES) | GI50
1 | COc1ccc(/C=C/C(=O)CC(=O)/C=C/c2ccc(OC)cc2)cc1 | inactive: > 100 µM
2 | Cc1cc(S(=O)(=O)Nc2nnc3c(C(F)(F)F)cc(Cl)cn23)c(S)cc1Cl | inactive: 68.7 µM
3 | CN(C)c1ccc(NN=C2SC(=N\c3ccccc3)/C(=N/c3ccccc3)S2)cc1 | inactive: > 100 µM
4 | CC(Oc1ccc2c(-c3ccccc3)cc(=O)oc2c1)C(=O)O (stereo not given) | inactive: > 100 µM
5 | CC1CN=C(Nc2ccc(F)c(Cl)c2)S1 (stereo not given) | inactive: > 100 µM
6 | c1cc(NNc2cccc(-c3nnn[nH]3)c2)cc(-c2nnn[nH]2)c1 | inactive: > 100 µM
7 | CCOc1cc2c(cc1O)C(=O)C[C@@H]1[C@@H]2CC[C@]2(C)[C@@H](O)CC[C@@H]12 | active: 0.65 µM
8 | O=CNc1ncn[nH]1 | inactive: > 100 µM
9 | COc1ccc(C(C2=C(C)C(=O)c3ccccc3C2=O)c2ccc(C(C)C)cc(=O)c2O)cc1 (stereo not given) | inactive: 4.68 µM
10 | O=C1OCC(CN2CCC(n3c(=O)[nH]c4ccccc43)CC2)=C1c1ccccc1 | inactive: 28.2 µM
11 | COc1ccc2c(c1O)C13CCN(C)C(C2)C1CCC1(C3)OCCO1 (stereo not given) | inactive: > 100 µM
12 | O=CCCCCCOCc1ccccc1 | inactive: > 100 µM
13 | C/C(=N\NC(=O)c1ccncc1)c1ccccc1Cl | inactive: > 100 µM
14 | CC(=O)OCC1OC(n2c(-c3ccc(C)cc3)cc(-c3ccccc3)c(C#N)c2=S)C(OC(C)=O)C(OC(C)=O)C1OC(C)=O (stereo not given) | inactive: > 100 µM
15 | CCN(CC)CC1CCCCN1CC(=O)N1c2ccccc2NC(=O)CC1C (stereo not given) | inactive: > 100 µM
16 | O/N=C/[C@H]1COC2(CCCCC2)O1 | inactive: > 100 µM
17 | C/N=C(N)/N=C(\N)Nc1cc2ccccc2c2ccccc12 | inactive: 15.5 µM
18 | CCOc1ccc(/C(C=O)=C(\Cl)c2ccc(OC)c(OC)c2)cc1 | inactive: > 100 µM
19 | O=C(O)/C=C(/C(=O)O)C12CCN3CC4=CCOC5CC(=O)NC1C5C4CC32 (stereo not given) | inactive: > 100 µM
20 | N=C(N)C(/N=N\c1ccccc1)C(=N)N (stereo not given) | inactive: 48.6 µM
21 | CCC/C(C)=N/NC(=S)SC.CCC/C(C)=N/NC(=S)SC.[Zn+2] | inactive: 6.53 µM
22 | CCOC(=O)/C=C(/C(=O)OCC)n1cnc2c(=O)[nH]c(NC(C)=O)nc21 | inactive: > 100 µM
23 | CCC/N=C/c1c(O)c(O)c(C(C)C)c2cc(C)c(-c3c(C)cc4c(C(C)C)c(O)c(O)c(/C=N/CCC)c4c3O)c(O)c12 | inactive: 1.94 µM

Row | Structure (SMILES) | GI50
24 | N#CC(C(=O)CCCC(=O)Nc1ccccc1[N+](=O)[O-])c1c(Cl)cccc1Cl (stereo not given) | inactive: > 100 µM
25 | Cc1ccc(NC(=O)CC2Sc3ccccc3NC2=O)cc1C (stereo not given) | inactive: 60.5 µM
26 | COC(=O)[C@@H]1O[C@]12[C@@H](CO[Si](C)(C)C(C)(C)C)O[C@@H](n1cc(C)c(=O)[nH]c1=O)[C@@H]2O[Si](C)(C)C(C)(C)C | inactive: 19.2 µM
27 | COc1ccc2c(c1O)[C@@]13CCCC=C1[C@@H](C2)[N+](C)(C)CC3 | inactive: > 100 µM
28 | Cc1cccc(/C=N/NC(=S)N(C)CCc2ccccn2)n1 | active: 0.865 µM
29 | NS(=O)(=O)c1ccc(NNc2c3ccccc3nc3ccccc23)cc1 | inactive: 13.2 µM
30 | COc1cc(/C=C2\N=C(c3ccccc3)N(c3ccc(S(=O)(=O)Nc4nccs4)cc3)C2=O)ccc1O | inactive: > 100 µM
31 | C=C(CO)CC(/C=C(\C)CC/C=C(\C)CCl)OC(C)=O (stereo not given) | inactive: > 100 µM
32 | COC(=O)/C=C/CCC#Cc1ccccc1C#CCC/C=C/C(=O)OC | inactive: 31.4 µM
33 | Cc1cccc2c1N(C(=O)/C=C\C(=O)O)C(c1c(C)[nH]c3ccccc13)C2 (stereo not given) | inactive: 39.9 µM
34 | CC(C)=NC(C(=O)O)C(C)(C)S (stereo not given) | inactive: > 100 µM
35 | CC1=NN=C(C)C1/N=N/c1ccc2[nH]c(C)nc2c1 | inactive: 23.4 µM
36 | Clc1ccc(CN2COc3c(cc(Cl)c4cccnc34)C2)cc1 | inactive: 3.52 µM
37 | C[C@@H]1CCC([C@@H](C)[C@H]2CC[C@H]3[C@@H]4CC[C@H]5C[C@@H](O)CC[C@]5(C)[C@H]4CC[C@]23C)=NC1 | inactive: 17.2 µM
38 | CCOC(=O)c1ccc(C(=O)C(C(C)=O)C(=O)OC(C)(C)C)n1C (stereo not given) | inactive: > 100 µM
39 | C[C@]12CC[C@H]3[C@@H](CC=C4C[C@@H](O)CC[C@@]43C)[C@@H]1CC[C@@H]2N(CCO)CCO | inactive: 48.1 µM
40 | COc1ccc(C[C@@H]2CN(C(=O)c3ccccc3)[C@H](Cc3ccc(O)cc3)CN2C(=O)c2ccccc2)cc1Br | inactive: > 100 µM
41 | O=[N+]([O-])c1cccnc1NCC1(CO)CCCC1 | inactive: 23.4 µM
42 | O=NN1C(c2ccccc2)CCCC1c1ccccc1 (stereo not given) | inactive: > 100 µM
43 | COc1ccc(N2C(=O)C3CC(c4ccc(C)cc4)c4c([nH]c5ccccc45)C3C2=O)cc1 (stereo not given) | inactive: 14.8 µM
44 | O=C1NC(Nc2cccc(Cl)c2)=N/C1=C\c1ccc(Cl)c(Cl)c1 | inactive: 4.46 µM
45 | CC1=C(c2cc(C(=O)Nc3ccc(Cl)cc3)nc(S)n2)Sc2ccccc2N1 | inactive: > 100 µM
46 | COc1ccc(C(NCCNC(c2ccc(OC)c(OC)c2)c2cc3c(cc2O)OCO3)c2cc3c(cc2O)OCO3)cc1OC (stereo not given) | inactive: 8.91 µM

Row | Structure (SMILES) | GI50
47 | CN(C)/C=N/c1ccc2c3c(cccc13)-c1ccccc1-2 | inactive: 14.8 µM
48 | COc1ccc(OC)c(CNc2ccc(C(=O)O)cc2)c1 | inactive: > 100 µM
49 | Cc1ccc(NC(=O)C(=O)Cc2cccc[n+]2[O-])cc1C | inactive: > 100 µM
50 | C=C(C)C(=O)OC1CC2(C)OC(=CC2=O)C(C)CC2OC(=O)C(=C)C12 (stereo not given) | inactive: 23.1 µM
51 | CC1(C)OC(=O)[C@@](C)([C@H](O)c2ccccc2)O1 | inactive: > 100 µM
52 | Cc1ccc(/C=C2\CCS(=O)(=O)c3ccccc3C2=O)cc1 | inactive: 19.2 µM
53 | Cn1c2c3c(F)c(F)ccc3nc-2cc2ccccc21 | inactive: 7.1 µM
54 | CC(=O)NNc1nc(C)c(C(=O)NNC(=O)C(=O)Nc2c([N+](=O)[O-])ccc(C)c2C)s1 | inactive: > 100 µM
55 | CCCCCCNC(=O)CCN(C(=O)O)S(=O)(=O)c1ccc(NC(=O)c2ccccc2)cc1 | inactive: > 100 µM
56 | COC(C(=O)C(O)C(C)O)C1CC2C=C3C=C(OC4CC(OC5CC(O)C(OC)C(C)O5)C(OC(C)=O)C(C)O4)C(C)C(O)=C3C(O)=C2C(=O)C1OC1CC(OC2CC(OC3CC(C)(O)C(OC(=O)C(C)C)C(C)O3)C(O)C(C)O2)C(O)C(C)O1 (stereo not given) | active: < 0.01 µM
57 | CCCCOCCOC1=CC(=O)c2c(O)ccc(O)c2C1=O | inactive: 1.67 µM
58 | Cc1ccc(/C=C2\CCCC(C(NO)c3ccc(C)cc3)C2=NO)cc1 (stereo not given) | inactive: 17.2 µM
59 | Cc1ccc(/C=C2/N/C(=N\N=C/C(O)C(O)C(O)C(O)CO)NC2=O)cc1 (stereo not given) | inactive: > 100 µM
60 | O=C1C[S+]([O-])C23c4cc5ccccc5n4CCC2CCCN13 (stereo not given) | inactive: > 100 µM
61 | CCCC(=O)/C=C/S/C=C/C(=O)CCC | inactive: 16.9 µM
62 | CCOC(=O)C(=O)/C(=C/N1C(=O)CC(=O)NC1=S)C(=O)OCC | inactive: > 100 µM
63 | COC(=O)[C@@]12C(=O)C(C)C(=O)[C@]1(C)C(C)=C[C@H]1[C@]3(C=O)CC[C@H](OC(C)=O)C(C)(C)[C@H]3CC[C@@]12C (stereo not given in full) | inactive: > 100 µM
64 | COc1ccc(C(=O)/C=C/c2ccncc2)cc1OC | inactive: 15.8 µM
65 | Cc1c(CCl)c(=O)oc2c(C)c3occ(CCl)c(=O)c3cc12 | inactive: > 100 µM
66 | COC(=O)C([C@H]1CC[C@H](OCc2ccccc2)[C@@]1(O)COCc1ccccc1)C(C)(O)CCc1ccccc1 (stereo not given in full) | inactive: 24 µM
67 | Cn1c(S)nc2c(Cl)cc(Cl)cc2c1=O | inactive: > 100 µM
68 | Cc1cc(C)c(N)c(CO)c1 | inactive: > 100 µM and inactive: > 75 µM
69 | C=CCCC1CCCCC/C1=N\N(C)C (stereo not given) | inactive: > 100 µM

Row | Structure (SMILES) | GI50
70 | Cc1ccc(S(=O)(=O)N2CCSCCSCCSCCN(S(=O)(=O)c3ccc(C)cc3)CC2)cc1 | inactive: > 100 µM
71 | CN(C(=O)Cc1cc(Cl)c(Cl)cc1NC(=O)CCCN)[C@H]1CCCC[C@@H]1N1CCCC1 | inactive: 34.8 µM
72 | COc1ccc2c(N=[N+]=[N-])c(-c3ccccc3)c(=O)oc2c1 | inactive: > 100 µM
73 | CN(C)CC1CCCC(CN(C)C)C1=NOC(=O)c1ccccc1 (stereo not given) | inactive: > 100 µM
74 | COc1ccc(-c2c3ccccc3c(-c3ccc(OCCCCCBr)cc3)c3ccccc23)cc1 | inactive: > 100 µM
75 | CCNCC(O)COc1ccc2c(c1)[n+]([O-])nc(N)[n+]2[O-] (stereo not given) | inactive: 37.2 µM
76 | COC(=O)c1cc(C#N)[nH]c1-c1cccs1 | inactive: > 100 µM
77 | CC[C@]12C=CCN3CC[C@@]4(c5cc(N=O)c(OC)cc5N(C)[C@H]4[C@@](O)(C(=O)NC(Cc4c[nH]c5ccccc45)C(=O)OC)[C@@H]1O)[C@@H]32 (stereo not given in full) | inactive: 15.1 µM
78 | Cc1ccc2nc(NC(=O)C(=O)C3C(=O)NC(=S)NC3=O)sc2c1 | inactive: > 100 µM
79 | Cc1cc2nc(N3C(=O)/C(=C/c4cccc([N+](=O)[O-])c4)N=C3c3ccccc3)sc2cc1C | inactive: 48.4 µM
80 | N#CC(C(=O)/C(=N/Nc1nc(S)nn1N)C(C#N)c1ccccc1)c1ccccc1 (stereo not given) | inactive: > 100 µM
81 | O=C1C(N2CCCC2)=CC(=O)c2c(O)c(N3CCCC3)c(Cl)c(O)c21 | inactive: > 10 µM
82 | Cc1cn(S(=O)(=O)c2ccccc2)c2c(OCc3ccccc3)cc([N+](=O)[O-])cc12 | inactive: > 100 µM
83 | CCCCCC[C@H]1CC(=O)C2CCCC[C@@]23CC[C@H](CCl)N13.CCCCCC[C@H]1CC(=O)C2CCCC[C@@]23C[C@H](Cl)CN13 (stereo not given in full) | inactive: > 100 µM
84 | CC1OC1C(=O)P(=O)(O)O (stereo not given) | inactive: > 100 µM
85 | CC(NP(=O)(c1ccccc1)c1ccccc1)c1ccccc1 (stereo not given) | inactive: > 100 µM
86 | COC(=O)c1ccc2cc(O)c(O)cc2c1 | inactive: 50.4 µM
87 | Cc1nc2cccc([N+](=O)[O-])c2n1CCCN(C)C | inactive: > 100 µM
88 | CCNc1nnc(-c2nsc3ccccc23)s1 | inactive: 20.2 µM
89 | O=c1cccccc1O.O=c1cccccc1O.O=c1cccccc1O.[SiH4] | inactive: 22.5 µM
90 | CCN(CCCl)CCCNc1c2ccccc2nc2ccc(OC)cc12 | active: 0.565 µM
